Kd data for one molecule are collected here from patent US20210253657A1 (IL DONG PHARMACEUTICAL, published 2021).

As a reminder, the Kd is the equilibrium constant for the complex coming apart. Low values mean tighter binding, high ones weaker binding.

The assay addresses T1, human NRP1 extracellular domain (ECD) (human, UniProt O14786 22-856).
T1 construct: extracellular domain; Immobilized on a CM5 chip for SPR; also called NRP1 ECD; human NRP1 ECDs
T1 sequence (looked up): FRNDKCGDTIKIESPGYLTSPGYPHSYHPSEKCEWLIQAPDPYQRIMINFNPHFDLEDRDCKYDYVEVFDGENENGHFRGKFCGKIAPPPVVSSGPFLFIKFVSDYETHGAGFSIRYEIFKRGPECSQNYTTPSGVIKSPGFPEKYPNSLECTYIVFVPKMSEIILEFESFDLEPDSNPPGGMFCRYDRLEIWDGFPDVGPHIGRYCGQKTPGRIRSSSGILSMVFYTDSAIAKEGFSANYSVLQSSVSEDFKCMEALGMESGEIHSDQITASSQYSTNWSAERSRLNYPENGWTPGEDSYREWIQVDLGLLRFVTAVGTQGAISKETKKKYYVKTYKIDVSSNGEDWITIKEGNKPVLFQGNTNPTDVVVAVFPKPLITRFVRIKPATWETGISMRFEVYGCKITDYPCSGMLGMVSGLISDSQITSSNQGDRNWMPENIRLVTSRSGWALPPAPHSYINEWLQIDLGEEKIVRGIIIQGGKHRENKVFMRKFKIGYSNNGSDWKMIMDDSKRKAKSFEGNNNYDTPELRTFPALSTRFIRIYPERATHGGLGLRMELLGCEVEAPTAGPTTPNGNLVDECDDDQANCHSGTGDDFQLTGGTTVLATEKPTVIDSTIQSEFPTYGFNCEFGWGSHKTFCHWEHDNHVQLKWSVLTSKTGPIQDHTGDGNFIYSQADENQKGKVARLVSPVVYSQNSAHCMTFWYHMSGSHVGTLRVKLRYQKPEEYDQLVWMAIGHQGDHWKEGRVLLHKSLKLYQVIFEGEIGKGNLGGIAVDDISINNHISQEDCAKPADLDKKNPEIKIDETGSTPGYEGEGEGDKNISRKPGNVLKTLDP
Nature of the assay: SPR (Biacore T200), human NRP1 ECD on a CM5 chip, 1:1 Langmuir model.

B1: Avastin-TPP11 fusion protein (antibody, human IgG1, kappa)
heavy: EVQLVESGGGLVQPGGSLRLSCAASGYTFTNYGMNWVRQAPGKGLEWVGWINTYTGEPTYAADFKRRFTFSLDTSKSTAYLQMNSLRAEDTAVYYCAKYPHYYGSSHWYFDVWGQGTLVTVSS[skipping human IgG1 constant region]GGGGSGGGGSGGGGSHTPGNSKPTRTPRR
light: DIQMTQSPSSLSASVGDRVTITCSASQDISNYLNWYQQKPGKAPKVLIYFTSSLHSGVPSRFSGSGSGTDFTLTISSLQPEDFATYYCQQYSTVPWTFGQGTKVEIKRTVAAPSVFIFPPSDEQLKSGTASVVCLLNNFYPREAKVQWKVDNALQSGNSQESVTEQDSKDSTYSLSSTLTLSKADYEKHKVYACEVTHQGLSSPVTKSFNRGEC
In the case of B1, binding was put at a Kd of 15.7 nM.
